# Assay results as given in the supplement of paper PMC8728848.
# The other results are listed elsewhere or left out.
# B1: SJA (Sophora japonica) (protein)
# chain: FLGLFNSGGYSSSYQIVAVEFDTYINEWDPKTRHIGIDINSINSTKTVTWGWENGEVAIVLISYKAATETLTVSLTYPSSQTSYILSAAVDLKSILPEWVRIGF
# Legend:
# Experiment in all cases: glycan array binding signal (z-score within array); higher = stronger binding
# Conditions in all cases: glycan notation: IUPAC condensed, linker removed
# [1] = biological target: GlcNAc(a1-3)Gal(b1-4)GlcNAc
# Outline: (§1)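 The binding signal is a Z-score computed within each array and averaged over linkers. Arrays of the same protein sequence at different concentrations or buffers were also averaged together. Data originate from 3228 arrays in the Consortium for Functional Glycomics database, kept only where the protein sequence was available.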
# [2] = biological target: GlcNAc(a1-4)Gal(b1-3)GlcNAc
# Outline: as §1
# [3] = biological target: GlcNAc(a1-4)Gal(b1-4)GalNAc
# Outline: as §1
# [4] = biological target: GlcNAc(a1-4)Gal(b1-4)GlcNAc
# Outline: as §1
# [5] = biological target: GlcNAc(a1-4)Gal(b1-4)GlcNAc(b1-3)Gal(b1-4)Glc
# Outline: as §1
# [6] = biological target: GlcNAc(a1-4)Gal(b1-4)GlcNAc(b1-3)Gal(b1-4)GlcNAc
# Outline: as §1
# [7] = biological target: GlcNAc(a1-4)Gal(b1-4)GlcNAc(b1-3)Gal(b1-4)GlcNAc(b1-3)Gal(b1-4)GlcNAc
# Outline: as §1
# [8] = biological target: GlcNAc(a1-4)Gal(b1-4)GlcNAc(b1-3)Gal(b1-4)[Fuc(a1-3)]GlcNAc(b1-3)Gal(b1-4)[Fuc(a1-3)]GlcNAc
# Outline: as §1
# [9] = biological target: GlcNAc(a1-6)Gal(b1-4)GlcNAc
# Outline: as §1
# [10] = biological target: GlcNAc(b1-2)Gal(b1-3)GalNAc
# Outline: as §1
# [11] = biological target: GlcNAc(b1-2)Man(a1-3)[GlcNAc(b1-2)Man(a1-6)]Man(b1-4)GlcNAc(b1-4)GlcNAc
# Outline: as §1
# [12] = biological target: GlcNAc(b1-2)Man(a1-3)[GlcNAc(b1-2)Man(a1-6)]Man(b1-4)GlcNAc(b1-4)[Fuc(a1-6)]GlcNAc
# Outline: as §1
# [13] = biological target: GlcNAc(b1-2)Man(a1-3)[GlcNAc(b1-4)][GlcNAc(b1-2)Man(a1-6)]Man(b1-4)GlcNAc(b1-4)GlcNAc
# Outline: as §1
# [14] = biological target: GlcNAc(b1-2)Man(a1-3)[GlcNAc(b1-4)][GlcNAc(b1-2)Man(a1-6)]Man(b1-4)GlcNAc(b1-4)[Fuc(a1-6)]GlcNAc
# Outline: as §1
# [15] = biological target: GlcNAc(b1-2)[GlcNAc(b1-4)]Man(a1-3)[GlcNAc(b1-2)Man(a1-6)]Man(b1-4)GlcNAc(b1-4)GlcNAc
# Outline: as §1
# [16] = biological target: GlcNAc(b1-2)[GlcNAc(b1-4)]Man(a1-3)[GlcNAc(b1-4)][GlcNAc(b1-2)Man(a1-6)]Man(b1-4)GlcNAc(b1-4)GlcNAc
# Outline: as §1
# [17] = biological target: GlcNAc(b1-2)[GlcNAc(b1-4)]Man(a1-3)[GlcNAc(b1-4)][GlcNAc(b1-2)[GlcNAc(b1-6)]Man(a1-6)]Man(b1-4)GlcNAc(b1-4)GlcNAc
# Outline: as §1
# [18] = biological target: GlcNAc(b1-2)[GlcNAc(b1-4)]Man(a1-3)[GlcNAc(b1-4)][GlcNAc(b1-2)[GlcNAc(b1-6)]Man(a1-6)]Man(b1-4)GlcNAc(b1-4)[Fuc(a1-6)]GlcNAc
# Outline: as §1
# [19] = biological target: GlcNAc(b1-2)[GlcNAc(b1-6)]Man(a1-6)[GlcNAc(b1-2)Man(a1-3)]Man(b1-4)GlcNAc(b1-4)GlcNAc
# Outline: as §1
# [20] = biological target: GlcNAc(b1-2)[GlcNAc(b1-6)]Man(a1-6)[GlcNAc(b1-2)Man(a1-3)]Man(b1-4)GlcNAc(b1-4)[Fuc(a1-6)]GlcNAc
# Outline: as §1
# [21] = biological target: GlcNAc(b1-2)[GlcNAc(b1-6)]Man(a1-6)[GlcNAc(b1-4)][GlcNAc(b1-2)Man(a1-3)]Man(b1-4)GlcNAc(b1-4)GlcNAc
# Outline: as §1
# GlcNAc(b1-3)Fuc = biological target: GlcNAc(b1-3)Fuc
# Outline: as §1
# GlcNAc(b1-3)Gal = biological target: GlcNAc(b1-3)Gal
# Outline: as §1
# [22] = biological target: GlcNAc(b1-3)Gal(b1-3)GalNAc
# Outline: as §1
# GlcNAc(b1-3)Gal(b1-4)Glc = biological target: GlcNAc(b1-3)Gal(b1-4)Glc
# Outline: as §1
# [23] = biological target: GlcNAc(b1-3)Gal(b1-4)GlcNAc
# Outline: as §1
# [24] = biological target: GlcNAc(b1-3)Gal(b1-4)GlcNAc(b1-2)Man(a1-3)[GlcNAc(b1-3)Gal(b1-4)GlcNAc(b1-2)Man(a1-6)]Man(b1-4)GlcNAc(b1-4)GlcNAc
# Outline: as §1
# [25] = biological target: GlcNAc(b1-3)Gal(b1-4)GlcNAc(b1-2)Man(a1-3)[GlcNAc(b1-3)Gal(b1-4)GlcNAc(b1-2)Man(a1-6)]Man(b1-4)GlcNAc(b1-4)[Fuc(a1-6)]GlcNAc
# Outline: as §1
# [26] = biological target: GlcNAc(b1-3)Gal(b1-4)GlcNAc(b1-2)[GlcNAc(b1-3)Gal(b1-4)GlcNAc(b1-6)]Man(a1-6)[GlcNAc(b1-3)Gal(b1-4)GlcNAc(b1-2)Man(a1-3)]Man(b1-4)GlcNAc(b1-4)GlcNAc
# Outline: as §1
# [27] = biological target: GlcNAc(b1-3)Gal(b1-4)GlcNAc(b1-3)Gal(b1-4)GlcNAc
# Outline: as §1
# [28] = biological target: GlcNAc(b1-3)Gal(b1-4)GlcNAc(b1-3)Gal(b1-4)GlcNAc(b1-2)Man(a1-3)[GlcNAc(b1-3)Gal(b1-4)GlcNAc(b1-3)Gal(b1-4)GlcNAc(b1-2)Man(a1-6)]Man(b1-4)GlcNAc(b1-4)GlcNAc
# Outline: as §1
# [29] = biological target: GlcNAc(b1-3)Gal(b1-4)GlcNAc(b1-3)Gal(b1-4)GlcNAc(b1-2)Man(a1-3)[GlcNAc(b1-3)Gal(b1-4)GlcNAc(b1-3)Gal(b1-4)GlcNAc(b1-2)Man(a1-6)]Man(b1-4)GlcNAc(b1-4)[Fuc(a1-6)]GlcNAc
# Outline: as §1
# [30] = biological target: GlcNAc(b1-3)Gal(b1-4)GlcNAc(b1-3)Gal(b1-4)GlcNAc(b1-2)[GlcNAc(b1-3)Gal(b1-4)GlcNAc(b1-3)Gal(b1-4)GlcNAc(b1-6)]Man(a1-6)[GlcNAc(b1-3)Gal(b1-4)GlcNAc(b1-3)Gal(b1-4)GlcNAc(b1-2)Man(a1-3)]Man(b1-4)GlcNAc(b1-4)[Fuc(a1-6)]GlcNAc
# Outline: as §1
# [31] = biological target: GlcNAc(b1-3)Gal(b1-4)GlcNAc(b1-3)Gal(b1-4)GlcNAc(b1-3)Gal(b1-4)GlcNAc(b1-2)Man(a1-3)[GlcNAc(b1-3)Gal(b1-4)GlcNAc(b1-3)Gal(b1-4)GlcNAc(b1-3)Gal(b1-4)GlcNAc(b1-2)Man(a1-6)]Man(b1-4)GlcNAc(b1-4)GlcNAc
# Outline: as §1
# [32] = biological target: GlcNAc(b1-3)Gal(b1-4)GlcNAc(b1-3)Gal(b1-4)GlcNAc(b1-3)Gal(b1-4)GlcNAc(b1-2)Man(a1-3)[GlcNAc(b1-3)Gal(b1-4)GlcNAc(b1-3)Gal(b1-4)GlcNAc(b1-3)Gal(b1-4)GlcNAc(b1-2)Man(a1-6)]Man(b1-4)GlcNAc(b1-4)[Fuc(a1-6)]GlcNAc
# Outline: as §1
# [33] = biological target: GlcNAc(b1-3)Gal(b1-4)GlcNAc(b1-3)Gal(b1-4)GlcNAc(b1-3)Gal(b1-4)GlcNAc(b1-2)[GlcNAc(b1-3)Gal(b1-4)GlcNAc(b1-3)Gal(b1-4)GlcNAc(b1-3)Gal(b1-4)GlcNAc(b1-6)]Man(a1-6)[GlcNAc(b1-3)Gal(b1-4)GlcNAc(b1-3)Gal(b1-4)GlcNAc(b1-3)Gal(b1-4)GlcNAc(b1-2)Man(a1-3)]Man(b1-4)GlcNAc(b1-4)[Fuc(a1-6)]GlcNAc
# Outline: as §1
# [34] = biological target: GlcNAc(b1-3)Gal(b1-4)GlcNAc(b1-3)Gal(b1-4)GlcNAc(b1-3)Gal(b1-4)GlcNAc(b1-3)Gal(b1-4)GlcNAc(b1-2)Man(a1-3)[GlcNAc(b1-3)Gal(b1-4)GlcNAc(b1-3)Gal(b1-4)GlcNAc(b1-3)Gal(b1-4)GlcNAc(b1-3)Gal(b1-4)GlcNAc(b1-2)Man(a1-6)]Man(b1-4)GlcNAc(b1-4)GlcNAc
# Outline: as §1
# [35] = biological target: GlcNAc(b1-3)Gal(b1-4)GlcNAc(b1-3)Gal(b1-4)GlcNAc(b1-3)Gal(b1-4)GlcNAc(b1-3)Gal(b1-4)GlcNAc(b1-2)Man(a1-3)[GlcNAc(b1-3)Gal(b1-4)GlcNAc(b1-3)Gal(b1-4)GlcNAc(b1-3)Gal(b1-4)GlcNAc(b1-3)Gal(b1-4)GlcNAc(b1-2)Man(a1-6)]Man(b1-4)GlcNAc(b1-4)[Fuc(a1-6)]GlcNAc
# Outline: as §1
# [36] = biological target: GlcNAc(b1-3)Gal(b1-4)GlcNAc(b1-3)Gal(b1-4)GlcNAc(b1-3)Gal(b1-4)GlcNAc(b1-3)Gal(b1-4)GlcNAc(b1-2)[GlcNAc(b1-3)Gal(b1-4)GlcNAc(b1-3)Gal(b1-4)GlcNAc(b1-3)Gal(b1-4)GlcNAc(b1-3)Gal(b1-4)GlcNAc(b1-6)]Man(a1-6)[GlcNAc(b1-3)Gal(b1-4)GlcNAc(b1-3)Gal(b1-4)GlcNAc(b1-3)Gal(b1-4)GlcNAc(b1-3)Gal(b1-4)GlcNAc(b1-2)Man(a1-3)]Man(b1-4)GlcNAc(b1-4)[Fuc(a1-6)]GlcNAc
# Outline: as §1
# [37] = biological target: GlcNAc(b1-3)Gal(b1-4)GlcNAc(b1-3)Gal(b1-4)GlcNAc(b1-3)GalNAc
# Outline: as §1
# [38] = biological target: GlcNAc(b1-3)Gal(b1-4)GlcNAc(b1-3)GalNAc
# Outline: as §1
# [39] = biological target: GlcNAc(b1-3)Gal(b1-4)GlcNAc(b1-3)[GlcNAc(b1-3)Gal(b1-4)GlcNAc(b1-3)]GalNAc
# Outline: as §1
# [40] = biological target: GlcNAc(b1-3)Gal(b1-4)GlcNAc(b1-6)[Gal(b1-3)]GalNAc
# Outline: as §1
# [41] = biological target: GlcNAc(b1-3)Gal(b1-4)GlcNAc(b1-6)[GlcNAc(b1-3)Gal(b1-3)]GalNAc
# Outline: as §1
# [42] = biological target: GlcNAc(b1-3)Gal(b1-4)GlcNAc(b1-6)[GlcNAc(b1-3)]Gal(b1-4)GlcNAc
# Outline: as §1
binder,measurement,setting,value
B1,glycan array binding signal (z-score),[1],-0.153
same,glycan array binding signal (z-score),[2],-0.188
same,glycan array binding signal (z-score),[3],-0.15
same,glycan array binding signal (z-score),[4],-0.164
same,glycan array binding signal (z-score),[5],-0.136
same,glycan array binding signal (z-score),[6],-0.229
same,glycan array binding signal (z-score),[7],-0.256
same,glycan array binding signal (z-score),[8],-0.079
same,glycan array binding signal (z-score),[9],-0.176
same,glycan array binding signal (z-score),[10],-0.192
same,glycan array binding signal (z-score),[11],-0.151
same,glycan array binding signal (z-score),[12],-0.072
same,glycan array binding signal (z-score),[13],-0.374
same,glycan array binding signal (z-score),[14],-0.063
same,glycan array binding signal (z-score),[15],-0.125
same,glycan array binding signal (z-score),[16],-0.181
same,glycan array binding signal (z-score),[17],-0.288
same,glycan array binding signal (z-score),[18],-0.417
same,glycan array binding signal (z-score),[19],-0.255
same,glycan array binding signal (z-score),[20],-0.375
same,glycan array binding signal (z-score),[21],-0.36
same,glycan array binding signal (z-score),GlcNAc(b1-3)Fuc,-0.295
same,glycan array binding signal (z-score),GlcNAc(b1-3)Gal,-0.124
same,glycan array binding signal (z-score),[22],-0.163
same,glycan array binding signal (z-score),GlcNAc(b1-3)Gal(b1-4)Glc,-0.043
same,glycan array binding signal (z-score),[23],-0.101
same,glycan array binding signal (z-score),[24],-0.337
same,glycan array binding signal (z-score),[25],-0.233
same,glycan array binding signal (z-score),[26],-0.075
same,glycan array binding signal (z-score),[27],-0.175
same,glycan array binding signal (z-score),[28],0.964
same,glycan array binding signal (z-score),[29],-0.137
same,glycan array binding signal (z-score),[30],-0.28
same,glycan array binding signal (z-score),[31],-0.162
same,glycan array binding signal (z-score),[32],-0.074
same,glycan array binding signal (z-score),[33],-0.049
same,glycan array binding signal (z-score),[34],-0.062
same,glycan array binding signal (z-score),[35],-0.306
same,glycan array binding signal (z-score),[36],0.047
same,glycan array binding signal (z-score),[37],-0.226
same,glycan array binding signal (z-score),[38],-0.477
same,glycan array binding signal (z-score),[39],-0.128
same,glycan array binding signal (z-score),[40],-0.24
same,glycan array binding signal (z-score),[41],-0.305
same,glycan array binding signal (z-score),[42],-0.244
